Reference: the supplement of paper PMC10433866

Columns and labels:
Experiment in all cases: growth relative to the no-drug well (fraction of no-drug control); higher = more growth, less inhibition; Broth microdilution in YPAD with 1% dextrose at 30 °C; OD600 at 24 h as a fraction of the no-drug well, three assays.
[1] = tested on: Candida lusitaniae isolate 1 (coding changes: none)
[2] = tested on: Candida lusitaniae isolate 10 (coding changes: none)
[3] = tested on: Candida lusitaniae isolate 13 (coding changes: RLM1 N181K)
[4] = tested on: Candida lusitaniae isolate 15 (coding changes: none)
[5] = tested on: Candida lusitaniae isolate 20 (coding changes: FKS1 L1355S)
[6] = tested on: Candida lusitaniae isolate 3 (coding changes: FKS1 L1355S / SYG1 E386K)
[7] = tested on: Candida lusitaniae isolate 6 (coding changes: none)
[8] = tested on: Candida lusitaniae isolate 7 (coding changes: RLM1 N181K)
[9] = tested on: Candida lusitaniae isolate 8 (coding changes: FKS1 L1355S)
[10] = tested on: Candida lusitaniae isolate 9 (coding changes: none)

OC(Cn1cncn1)(Cn1cncn1)c1ccc(F)cc1F [fluconazole]
growth
Conditions | [1] | [2] | [3] | [4] | [5] | [6] | [7] | [8] | [9] | [10]
0.5 µg/mL | 0.0632 | 0.049 | 0.0644 | 0.0642 | 0.0591 | 0.05 | 0.066 | 0.378 | 0.0528 | 0.0512
1 µg/mL | 0.0516 | 0.043 | 0.0401 | 0.0494 | 0.0488 | 0.0459 | 0.0471 | 0.0546 | 0.0378 | 0.0399
2 µg/mL | 0.054 | 0.0457 | 0.0392 | 0.0417 | 0.0392 | 0.04 | 0.0519 | 0.0487 | 0.0368 | 0.0392
4 µg/mL | 0.0482 | 0.0406 | 0.041 | 0.0385 | 0.0309 | 0.0365 | 0.0437 | 0.0435 | 0.0284 | 0.0389
8 µg/mL | 0.0496 | 0.0296 | 0.0341 | 0.0359 | 0.0314 | 0.0384 | 0.0441 | 0.0444 | 0.0326 | 0.0276
16 µg/mL | 0.0492 | 0.0235 | 0.0291 | 0.0369 | 0.0288 | 0.0366 | 0.0426 | 0.0432 | 0.0321 | 0.0229
32 µg/mL | 0.0359 | 0.0355 | 0.023 | 0.0338 | 0.0304 | 0.0347 | 0.0455 | 0.0426 | 0.0297 | 0.0253
64 µg/mL | 0.0407 | 0.0314 | 0.036 | 0.0317 | 0.0259 | 0.0301 | 0.0421 | 0.0408 | 0.02 | 0.0236
128 µg/mL | 0.0265 | 0.0222 | 0.0214 | 0.0203 | 0.0231 | 0.0243 | 0.0342 | 0.0328 | 0.0222 | 0.019
256 µg/mL | 0.0126 | 0.00872 | 0.0117 | 0.0113 | 0.0109 | 0.00907 | 0.0178 | 0.0134 | 0.0101 | 0.0111

CCCCCOc1ccc(-c2cc(-c3ccc(C(=O)N[C@H]4C[C@@H](O)[C@@H](O)NC(=O)[C@@H]5[C@@H](O)[C@@H](C)CN5C(=O)[C@H]([C@H](O)CC(N)=O)NC(=O)[C@H]([C@H](O)[C@@H](O)c5ccc(O)c(OS(=O)(=O)O)c5)NC(=O)[C@@H]5C[C@@H](O)CN5C(=O)[C@H]([C@@H](C)O)NC4=O)cc3)no2)cc1 [micafungin]
growth
Conditions | [1] | [2] | [3] | [4] | [5] | [6] | [7] | [8] | [9] | [10]
0.016 µg/mL | 0.00435 | 0.00637 | 0.00282 | 0.00332 | 0.592 | 0.874 | 0.00522 | 0.00479 | 0.892 | 0.0033
0.031 µg/mL | 0.00224 | 0.00427 | 0.0028 | 0.00503 | 0.195 | 0.483 | 0.00579 | 0.00322 | 0.544 | 0.00484
0.063 µg/mL | 0.00145 | 0.00221 | 0.00173 | 0.00506 | 0.0565 | 0.227 | 0.00615 | 0.00219 | 0.239 | 0.00345
0.125 µg/mL | 0.00092 | 0.00081 | 0.000399 | 0.00478 | 0.0124 | 0.0501 | 0.00224 | 0.00141 | 0.075 | 0.00269
0.25 µg/mL | 0.00277 | 0.00416 | 0.00227 | 0.0027 | 0.000226 | 0.0124 | 0.00505 | 0.00194 | 0.0164 | 0.00312
0.5 µg/mL | 0.00251 | 0.00489 | 0.000126 | 0.00659 | 0.00659 | 0.00922 | 0.00405 | 0.000909 | 0.0173 | 0.00439
1 µg/mL | 0.00328 | 0.00421 | 0.00199 | 0.001 | -9.05e-05 | 0.0107 | 0.00425 | 0.00193 | 0.00948 | 0.00469
2 µg/mL | 0.00356 | 0.00356 | 0.00254 | 0.00152 | 0.00276 | 0.00295 | 0.00179 | 0.000357 | 0.00603 | 0.00345
4 µg/mL | 0.000932 | 0.00287 | 0.00226 | 0.00177 | 0.00314 | 0.00493 | 0.00256 | 0.00141 | 0.0162 | 0.00172
8 µg/mL | 0.000932 | 0.00287 | 0.00226 | 0.00177 | 0.00314 | 0.00444 | 0.00256 | 0.00141 | 0.00586 | 0.00281

Growth of 20 clonally related Candida (Clavispora) lusitaniae isolates in two-fold drug steps (micafungin 0.016-8, fluconazole 0.5-256 µg/mL; YPAD, 30 °C, 24 h), OD600 as a fraction of the no-drug well; lower = more inhibition. The paper reads the MIC at the lowest dose that inhibits growth by half or more; no call per well. Isolates are numbered anew; coding changes are against their shared background.
